Measurements as given in the supplement of paper PMC11417369.
The other results are listed elsewhere or left out.

Test system: PfSIP2 AP2 domain 1 (GST-tagged)
Test: gcPBM binding intensity (ln(normalized median fluorescence intensity)); higher = stronger DNA binding
How it was run: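 In this array assay, P. falciparum DNA-binding domains with a GST tag, expressed in E. coli, were applied for 1 h to primer-extended double-stranded 36-bp intergenic genomic probes and negative controls on an Agilent 4 × 180k array. Bound protein was visualised with Alexa488 anti-GST antibody at 488 nm. Binding intensity is the highest Masliner-normalised natural-log median intensity across replicate spots of either probe orientation.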

| Sequence | gcPBM binding intensity (ln) |
| --- | --- |
| CACCCATAAATATACACACGCACAACACAAAATAAA [CACACA_site2903] | 7.52 |
| ATATATATATATACATGTACAAATGTATAACAAATG [XGTACX_site145] | 9.02 |
| TTTTTTTACAACATTACACACAAATATTCTGTGTTA [CACACA_site5957] | 7.1 |
| AGAAAATTAAAAAGAACACACAAATATATATATAAT [CACACA_site5896] | 6.86 |
| AATCGTGTTCTGAATACACACTAATACAAATTTGTA [CACACA_site6058] | 6.98 |
| AACAAAAATAATAATCAAATAAATAAATGAAAACAT [CACACA_negctrl_site456] | 6.86 |
| ATATTACAACATTTTATACACACGTGATTATTAATT [CACACA_site2877] | 7.1 |
| AACATTTTAAAACAGACACACACCAAAAAAAAAAAA [CACACA_site257] | 7.08 |
| CATCCTATTACTTGGTGTACTATTTTATATTGAATA [XGTACX_site1050] | 7.24 |
| ATAAATTTATCCAAGTGTACAAAGCTAACATTTTTT [XGTACX_site4399] | 7.05 |
| GTTTATAAAATAAGAAGTACTTTATGAGAACCATAT [XGTACX_site5789] | 7.09 |
| ATAAACAAGACGCAACAAAGTAGAAATTAAAAATAA [CACACA_negctrl_site345] | 6.73 |
| AAAAATGGAATTATCTGTACATATATAGTTTTTAAA [XGTACX_site5580] | 6.72 |
| TGGTACCTTACTTTTACACACTTTTTTTTTTTTTTT [CACACA_site1557] | 7.19 |
| CCATTTTAAATATGCACACAGATGCACTAACACATT [CACACA_site5099] | 10.5 |
| AATATATACGCATGCGCACACACAAGTGGGAAATTT [CACACA_site1786] | 6.98 |
| TTTTGAGTAGCCTATTGTACGAACTTTTTAAATACA [XGTACX_site1224] | 7.2 |
| CTATCTACATAAACGTGTACCCACAAATAAATAAAT [XGTACX_site5210] | 7.54 |
| TTAACCTTTTGATATTGTACCCATAATCTAATACAA [XGTACX_site769] | 6.97 |
| TTTTTTAAAAAAGTTTTCTGTATTTATATATATATA [CACACA_negctrl_site31] | 8.8 |
| TCATATGTATAAATTAGTACATATTTAATGGATATA [XGTACX_site3298] | 6.95 |
| AAATGAAAATAAAGCAACAGAAATATAATGTATTAT [GTGCAC_negctrl_site508] | 6.87 |

| Sequence | gcPBM binding intensity (ln) |
| --- | --- |
| TTATGTCATAAATGCACACATATATATATACATATA [CACACA_site1588] | 7.41 |
| AGGCACGTGTTATATACACACATAATCAAATAAACT [CACACA_site7852] | 7.2 |
| ACATTTTATACGATAAAATGTATAAGATTATGAAGA [TGCATGCA_negctrl_site476] | 6.9 |
| AAAATAATAACATTGTGTACATAAAAAGAAAACCTT [XGTACX_site840] | 7.24 |
| TATGAATGGTTAAGTACACACATATTAATATATGTA [CACACA_site3490] | 6.98 |
| AAATTAAAATAATAATTCTACAAATTAATTTATCAT [XGTACX_negctrl_site44] | 6.69 |
| TATCAAATGTATATATGTACTTATATTTTTTTTATA [XGTACX_site1501] | 6.92 |
| AATATATTTTCCTGCAAACACACATATAAATGTGTA [CACACA_site532] | 6.96 |
| TATATTACAAAAAGTACACACATAAATAAATACATA [CACACA_site975] | 7.17 |
| ATGCTCAAAAGATATGCATGTACAAATATATGAAAT [TGCATGCA_site592] | 7.02 |
| ACATACATACACCCACGTACGTACCGAAACACCACC [XGTACX_site1212] | 7.49 |
| GATATAATGTGTTTGGTATTCTTGATAGATAGTTTT [CACACA_negctrl_site1711] | 6.99 |
| ATGATGTCTTTATATTGTACATATATGAAGACGTTA [XGTACX_site7751] | 7 |
| ACTTCAAAAATAAACTGTACGTAAAAAAAAAAAAAA [XGTACX_site795] | 7.77 |
| TTTCTTTTTTTTTTTGTATATTAAATCTAAAAAGGA [TGCATGCA_negctrl_site431] | 6.98 |
| TTTAAATAAAATATTACACACTTAGAAAAATATATA [CACACA_site3663] | 6.78 |
| TTTCGTAAAATGAAATGTACTCAAAAGTAAATATAA [XGTACX_site214] | 6.88 |
| TGAGAGAGAAACGTAGTGCATAAAATCAAATTTAGA [GTGCAC_site9737] | 7.82 |
| GGTTCATATATTAACACACACATACATATTATATAT [CACACA_site2937] | 7.11 |
| AATAATCATAGTTCTACACACCTATATTGCAAAAAA [CACACA_site867] | 7.18 |
| TTATAAAAAATTTTAGTGCATATATGATTTATATAT [GTGCAC_site9831] | 8.21 |
| TAATATGTATTTACAAGTACTAACAAAATATTAAAA [XGTACX_site3379] | 6.96 |
